Measurements published in the supplement of paper PMC12217912.
The list shows a part of the results. The full chains were built here from the parent and the listed change. Values near 0.05 are background.

B1: TEV protease; numbered along this chain (parent)
chain: MGESLFKGPRDYNPISSSICHLTNESDGHTTSLYGIGFGPFIITNKHLFRRNNGTLVVQSLHGVFKVKDTTTLQQHLVDGRDMIIIRMPKDFPPFPQKLKFREPQREERICLVTTNFQTKSMSSMVSDTSCTFPSGDGIFWKHWIQTKDGQCGSPLVSTRDGFIVGIHSASNFTNTNNYFTSVPKNFMELLTNQEAQQWVSGWRLNADSVLWGGHKVFMVKPEEPFQPVKEATQL

Variants of: B1
Experiment: raw area under fraction-flipped curve 0-4 h after induction (AUC4h, not background-subtracted), DNA-recorder readout of cleavage of the substrate (dimensionless); higher = more cleavage of the substrate by the protease variant
Details: temperature: 34 °C; time window: 0-4 h after rhamnose induction
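Also: Bxb1 expression induced with 0.2% (w/v) L-rhamnose at OD600 near 0.5, cultures sampled hourly, flipped fraction per protease–substrate barcode pair counted by paired-end Illumina sequencing.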

Variant | area with substrate ENLYEQS | area with substrate ENLYGQS | area with substrate ENLYHQS | area with substrate ENLYIQS | area with substrate ENLYKQS | area with substrate ENLYNQS | area with substrate ENLYPQS | area with substrate ENLYSQS | area with substrate ENLYTQS | area with substrate ENLYVQS | area with substrate ENLYYQS | area with substrate ENLYLQS | area with substrate ENLYRQS | area with substrate ENLYWQS | area with substrate ENLYMQS | area with substrate ENLYQQS
MGESLFKGPRDYNPISSSICHLTNELDGHTTSLYGIGFGPFIITNKHLFRRNNGTLVVQSLHGVFKVKDTTTLQQHLVDGRDMIIIRMPKDFPPFPQKLKFREPQREERICLVTTNFQTKSMSSMVSDTSCTFPSGDGIFWKHWIQTKDGQCGSPLVSTRDGFIVGIHSASNFTNTNNYFTSVPKNFMELLTNQEAQQWVSGWRLNADSVLWGGHKVFMVKPEEPFQPVKEATQL [S26L] | 0.0591 | 0.0488 | 0.0602 | 0.0803 | 0.0624 | 0.0585 | 0.0256 | 0.0579 | 0.059 | 0.054 | 0.06 | – | – | – | – | –
MGESLFKGPRDYNPISSSICHLTNESDGHTTSLYGIGFGPFIITNKHLFRRNNGTLVVQSLHGVFKVKDTTTLQQHLVDGRDMIIIRMPKDFPPFPQKLKFREPQRYERICLVTTNFQTKSMSSMVSDTSCTFPSGDGIFWKHWIQTKDGQCGSPLVSTRDGFIVGIHSASNFTNTNNYFTSVPKNFMELLTNQEAQQWVSGWRLNADSVLWGGHKVFMVKPEEPFQPVKEATQL [E107Y] | – | 0.0502 | 0.0794 | 0.116 | 0.0139 | 0.0679 | 0.0728 | – | 0.0646 | 0.108 | – | 0.112 | 0.0633 | 0.0795 | – | –
MGESLFKGPRDYNPISSSICHLTNESDGHTTSLYGIGFGPFIITNKHLFRRNNGTLVVQSLHGVFKVKDTTTLQQHLVDGRDMGIIRMPKDFPPFPQKLKFREPQREERICLVTTNFQTKSMSSMVSDTSCTFPSGDGIFWKHWIQTKDGQCGSPLVSTRDGFIVGIHSASNFTNTNNYFTSVPKNFMELLTNQEAQQWVSGWRLNADSVLWGGHKVFMVKPEEPFQPVKEATQL [I84G] | 0.0513 | 0.0399 | 0.0524 | 0.0653 | 0.0428 | 0.0485 | 0.0683 | 0.0764 | – | – | – | 0.0563 | 0.0408 | – | 0.061 | –
MGESLFKGPRDYNPISSSICHLTNESDGHTTSLYGIGFGPFIITNKHLFRRNNGTLVVQSLHGVFKVKDTTTLQQHLVDGRDMIIIRMPKDFPPFPQKLKFREPQREERICLVTTNFQTKSMSSMVSDTSCTFPSGDGIFWKHWIQTKDGQCGSPLVSTRDGFIVGIHSASNFTNTNNYFTSVPKNFMELLTNFEAQQWVSGWRLNADSVLWGGHKVFMVKPEEPFQPVKEATQL [Q194F] | 0.0801 | 0.0613 | 0.0616 | 0.0917 | 0.051 | 0.0655 | – | 0.0697 | – | 0.111 | 0.0639 | – | 0.0306 | 0.066 | – | 0.0586
MGESLFKGPRDYNPISSSICHLTNESDGHTTSLYGIGFGPFIITNKHLFRRNNGTLVVQSLHGVFKVKDTTTLQQHLVDGRDMIIIRMPKDFPPFPQKLKFREPQREERICLVTTNFQTKSMSSMVSDTSCTFPSGDGIFWKHWIQTKDGQCGSPLVSTRDGFIVGIHSASNFTNTNNYFTSVPKNFMELLTNQEAQQWVSGWRLNADSVLWGGHKVFMVKPEEPFVPVKEATQL [Q227V] | 0.0639 | – | 0.0684 | – | – | 0.0742 | 0.0805 | – | – | 0.157 | 0.0703 | – | 0.0497 | 0.0674 | 0.0719 | 0.0637
